Experimental data reported in paper PMC12747378, “FtsZ phosphorylation modulates tail-core binding to tune cell division in Bacillus subtilis” (PLOS One, 2025).

Legend:
Assay in all cases: ITC; 5 µM full-length FtsZ or FtsZ core in the cell, 50 µM FtsZ tail or MinCN in the syringe; TKEG buffer (50 mM Tris pH 8, 50 mM KCl, 1 mM EDTA, 5% glycerol), 25°C; 20 injections of 2 µL; each replicate fitted
[1] = molecular target: Full-length FtsZ S333E (Bacillus subtilis) (UniProt P17865)
[2] = molecular target: Full-length FtsZ S333A (Bacillus subtilis) (UniProt P17865)
[3] = molecular target: FtsZ core (residues 1-315) M292H/I293W/F294K (Bacillus subtilis) (UniProt P17865)

B1: MinCN, the 92aa N-terminal domain of MinC (domain or fragment, Bacillus subtilis, UniProt Q01463 1-92, looked up)
chain: MKTKKQQYVTIKGTKNGLTLHLDDACSFDELLDGLQNMLSIEQYTDGKGQKISVHVKLGNRFLYKEQEEQLTELIASKKDLFVHSIDSEVIT
notes: MinC, Bacillus subtilis, N-terminal domain, 92 aa; amplified from B. subtilis genomic DNA; Cloned in pGEX-6P-1 with a PreScission site; cleavage of GST not described; source: E. coli BL21 Star (DE3), purified
With B1 the Kd ([1]; mean of three replicates) was 244 nM, the stoichiometry N ([1]; mean of three replicates) was 0.991 and the Kd ([1]; single replicate) was 252 nM, 256 nM, 223 nM [one table]. For the same binder, the stoichiometry N ([1]; single replicate) was 1.05, 0.967, 0.961 [one table], the Kd ([2]; mean of three replicates) was 441 nM and the stoichiometry N ([2]; mean of three replicates) was 1.03. For the same binder, the Kd ([2]; single replicate) was 452 nM, 433 nM, 440 nM [one table], the stoichiometry N ([2]; single replicate) was 0.931, 1.05, 1.11 [one table] and the Kd ([3]; mean of three replicates) was 402 nM. The stoichiometry N ([3]; mean of three replicates) was 1.25, the Kd ([3]; single replicate) was 431 nM, 349 nM, 427 nM [one table] and the stoichiometry N ([3]; single replicate) was 1.24, 1.38, 1.14 [one table].

Some entries of the source have several records that differ or are many. This list holds those alone. An entry can have further records. For part of these data: The records of an entry appear to be repeats (runs, samples, wells or individuals); one of them may be the mean. Entries with a single value are a further part of the results.
